# Among all 150,000 compounds or so, about 540 (0.36%) showed an effect of 50% or more. The list shows a part of the results.
# System: Plasmodium falciparum
# Experiment: Primary screen in NF54 nanoGlo assay, in single point, at 2uM, 72h; a lower Z score goes with more inhibition
# Format: functional, Erythrocyte
# Conditions: timepoint 72 hour
Compound,% Inhibition [%],Z score
COc1ccc(C(=O)NC2CCN(c3cnn(C)c(=O)c3)CC2)c(OC)c1,4,-0.86
COCCn1nnc2c1CCN(c1nc(C)c(CC(C)C)c(C)n1)C2,-5,0.64
COC(C)(C)CNC(=O)Cc1cc(C)on1,-9,1.39
CC(C)(O)CCNCc1ccc(Br)o1,12,-1.76
CN(CC1(CO)CCC1)c1nccc(C2CCCC2)n1,-16,1.58
Cc1ocnc1C(=O)N1C[C@@H]2CC[C@H]1CN(Cc1cscn1)C2,-15,2.12
Cn1cnnc1[C@H]1CCCN(c2ncccn2)C1,-10,1.28
COc1ccc(Cl)cc1NC(=O)[C@H](C)Oc1ccc(NC(=O)c2ccccc2OC)cc1,-1,0.17
NS(=O)(=O)c1cnn(C2CCCC2)c1,-9,0.82
CCC(=O)N(CCCOC)Cc1c(-c2ccccc2)noc1N1CCCC[C@@H]1C,-6,0.75
CC1CCCC(NC(=O)Cc2c(F)c(F)c(F)c(F)c2F)C1C (stereo not given),3,-0.49
CC(C)(C)OC(=O)N[C@@H]1CCN(C2CCC(C(=O)OC(C)(C)C)CC2)C1 (stereo not given in full),0,0.04
CCN(CC)S(=O)(=O)c1ccc2c(c1)nc(CN(C)C(=O)NCCc1ccccc1)n2C,-10,1.38
O=C1NCCN(C(=O)c2ccc(F)cc2F)[C@H]1Cc1ccccc1,-2,0.32
CN1CC(=O)Nc2cc(C(=O)NCc3cccc4c3OCC4)cnc21,-5,0.65
Cc1cc(C)nc(O[C@H]2CC[C@H](NC(=O)c3sc(C)nc3C)CC2)n1,-3,0.3
Cc1cc(CN[C@H]2CCC3(C2)CN(C(=O)OC(C)(C)C)C3)ccn1,0,-0.03
COc1ccc(Br)cc1Cn1nnc(C(=O)NCc2ccc3c(c2)OCO3)c1N,-13,2.53
CCC(CNC1CCCS(=O)(=O)C1)c1ccc(Cl)cc1 (stereo not given),-1,0.12
COc1ccc2cc(-c3n[nH]cc3CN(C)C[C@H]3CCCN3C)ccc2c1,-5,0.77
CCc1ccc(NC(=O)Cn2c(=O)c(-c3noc(C)n3)c3n(c2=O)CCCC3)cc1,-9,1.18
Cc1ccc(C(=O)C(=O)Nc2cccnc2-n2cccn2)cc1,-5,0.63
CCOC(=O)Cc1c(C)nc2ncnn2c1N1CCC(c2ccccc2)CC1,-10,1.37
O=C(NC(c1ccccc1)c1cccc(Cl)c1)NC(c1ccccc1)c1cccc(Cl)c1 (stereo not given),-15,1.8
O=C1C[C@@H]2CCN(CCCc3ccccc3)C[C@@H]2CCOc2ccccc2N1,0,-0.04
Cc1c(Cl)cccc1NC(=O)c1nc(N2CCCC2)c2c(C)c(C)n(-c3ccccc3)c2n1,0,0.07
CC(C)c1cc(CN(C)Cc2cccc3nonc23)on1,-6,1.07
O=C([C@H](O)C1CCCCC1)N1CCN(c2nc[nH]n2)CC1,-3,0.57

Compound,% Inhibition [%],Z score
Cc1cnc(CN2CC3(CCC2=O)CCN(Cc2ccc(F)cc2)CC3)cn1,-1,0.1
CCOC(=O)c1cccnc1-c1cccc(C(=O)N2CCC3(CCO3)CC2)c1,-11,2.13
COC(=O)C1CCCCC1NC(=O)c1[nH]nc(C2CC2)c1Cl (stereo not given),-9,1.17
Cc1ccc(C2=Nc3ccccc3N=C(c3ccc4ccccc4c3O)C2)cc1,8,-1.59
CC(C)(C)OC(=O)NC(CO)C(O)c1cccnc1 (stereo not given),2,-0.31
COc1cccc([C@H]2CC(=O)Nc3nc(N)sc32)c1OCc1cccc(Cl)c1,-5,1.04
Cc1ccc(S(=O)(=O)N2CCCN(C(=O)CN3CCCCC3)[C@@H]2C(C)C)cc1,-11,1.7
Cc1cc(Br)cnc1N(C)Cc1ncnn1C,0,0.03
COc1ccccc1-c1n[nH]c2c1CN(C(=O)c1cnc3ccccn13)CC2,-13,1.32
Cc1noc([C@H](C)OC(=O)c2c[nH]nc2C(C)(C)C)n1,2,-0.39
C=CCn1cc(CNCCOCC)c(C)n1,5,-0.68
Cc1nnc(-c2cc(C(C)C)n(-c3cccc(C(=O)NCc4ccncc4)c3)n2)o1,7,-0.61
Cc1nc(CCNc2ncccn2)sc1Cl,5,-0.75
O=c1ccc(-c2ccc(S(=O)(=O)Nc3ccc(OC(F)(F)F)cc3)o2)n[nH]1,-13,1.27
CC1=C(C(=O)NCc2cccc(COCC(F)(F)F)c2)CCCO1,-2,0.21
COC(CNC(=O)C1CCN(C)C(=O)C1)c1ccccc1 (stereo not given),-16,2.26
Cc1c(Cl)cncc1NC(=O)N1CCC12CCOCC2,-7,1.13
COC(=O)c1ccc(N(C)Cc2cc(F)c(F)c(F)c2)nn1,-1,0.16
Cc1noc(C)c1[C@@H]1CCCN1C(=O)Cc1ccc2c(c1)NC(=O)CO2,7,-1.12
COC(=O)CN1CCN(CCC2CCCC2)CC1,19,-2.79
Cc1nnc(NC(=O)Cn2cccn2)s1,-7,0.87
COc1ccc(NC(=O)Cn2nc(N3CCOCC3)c3ccccc3c2=O)cc1,-13,2.34
COCCn1c(=O)c(CNC[C@H](O)CO)cc2cc3c(cc21)CCC3,7,-0.8
COCCc1noc(CNc2nc3c(s2)c(C)nn3C)n1,-2,0.38
C[C@@H]1OCc2c1nc(N)c(C#N)c2-c1ccnn1-c1ccccc1,-27,2.5
CCCCc1noc(C(C)N2CCC(N3CCCC3)C2)n1 (stereo not given),-4,0.61
Cc1cccc(-c2ccc(N3CCC(C(=O)Nc4ccc(Oc5ccccc5)cc4)CC3)nn2)c1,-9,1.14

# From ChEMBL document CHEMBL4888484, “Replenishing the malaria drug discovery pipeline: Screening and hit evaluation of the MMV Hit Generation Library 1 (HGL1) against asexual blood stage Plasmodium falciparum ,using a nano luciferase reporter read-out” (2022)
